Experimental data: paper PMC12136788
Some of the results follow.

B1: ENSG00000136451:be:win_3301|3pUTR|ENSG00000136451|bound_else_gene|NA|bound_elsewhere_windowed (ssRNA)
RNA: GGGAGUUCUACAGUCCGACGAUCAUUGUACAACUUUUGUAUAUAUAAAAGCUUAGGAACUUUCUGUUUAGCAGGAAGGCAACACAUUCCUACACUUUUAAUGUAUAUGUUUGUUAUAAUGUCCAUGUAAACAUGCCCUAUGUUCAACAGAGGAUUGAGCAUCA
B2: chr1:55067125:55067226:-|3pUTR|ENSG00000162402|msi1|FALSE|unique (ssRNA)
RNA: GGGAGUUCUACAGUCCGACGAUCUAUCAUCGCUGGCGACUGCACUCUCAGGAGCCCAAAAUCAGGAGUGAAAUUGCCACUUCUAGUCCCCUUAUUUCCUAUGGAAACAACGCCUUCCGCACCCCUAGCACCUGCCGUCCUCACCAACAGAGGAUUGAGCAUCA
B3: chr6:145799413:145799514:-|3pUTR|ENSG00000118496|msi1|total|mutant (ssRNA)
RNA: GGGAGUUCUACAGUCCGACGAUCUUAUCUCACAUACUUACAACUCAACACACAGAGUGACCAUGUGCAGCUUUCUUUUUUGUCCGAUGCCACAUCCGAAGACUCAUCGCAGUGUGUUAUAUGACAGGACAAAGCAAAAACAAACAACAGAGGAUUGAGCAUCA
B4: chr3:15254852:15254953:-|3pUTR|ENSG00000131370|msi1|FALSE|unique (ssRNA)
RNA: GGGAGUUCUACAGUCCGACGAUCAAACUGUUAAUUCUGUCACAGCCUGUAUAUUUUAGUCAUUUGUAAAUCUCUUCAUACAAUAGUGACUUCUUUUUUGACUGAUACAGUAUCUUAAUUACAAGGUUAUUUUGUACUUGUCUUCAACAGAGGAUUGAGCAUCA
B5: chrX:108174439:108174621:-|CDS|ENSG00000197565|control|control|control (ssRNA)
RNA: GGGAGUUCUACAGUCCGACGAUCCGACCUGGACCACCAGGCCUACCUGGAGCUCCUGGCCUCCCAGGCAUUAUCAAAGGAGUUAGUGGAAAGCCAGGGCCCCCUGGCUUCAUGGGAAUCCGGGGCUUACCUGGCCUGAAGGGGCAACAGAGGAUUGAGCAUCA
B6: chr8:23842440:23842541:-|3pUTR|ENSG00000159167|msi1|FALSE|unique (ssRNA)
RNA: GGGAGUUCUACAGUCCGACGAUCCCAAUGCGACAAGUAGUUCAUGAGUAUUCCUAGCAAAUUUCUCUCUUUCUUCAGUUCAGUAGAUUUCCUUUUUUCUUUUCUUUUUUUUUUUUUUUUUUUUUGGCUGUGACCUCUUCAAACCAACAGAGGAUUGAGCAUCA
B7: chr16:61647241:61654101:-|three_prime_utr|ENSG00000150394|control|control|control (ssRNA)
RNA: GGGAGUUCUACAGUCCGACGAUCAAAGAAACUUGACAGUGGAUUAUAAAUAAAUCACUGGAACUGAGCAUUCUGUAAUAUUCUAGGGUCACUCCCCUUAGAUACAACCAAUGUGGCUAUUUGUUUUAGAGGCAAGUUUAGCACCAACAGAGGAUUGAGCAUCA
B8: chr20:59938049:59938150:-|3pUTR|ENSG00000132825|unk|total|mutant (ssRNA)
RNA: GGGAGUUCUACAGUCCGACGAUCAAGUUUGAAACUAAGCAUUUUAAGAAGUCUUGCCUCAGUUAUUUCAGUUUUCAGGUGACCCGAGAAUUUCAGGCAACAGUGCCCUUUGCAAUUACCUUUUUGAUGAUUAAGGUGACUAUUCAACAGAGGAUUGAGCAUCA
B9: ENSG00000198589:be:win_8901|3pUTR|ENSG00000198589|bound_else_gene|NA|bound_elsewhere_windowed (ssRNA)
RNA: GGGAGUUCUACAGUCCGACGAUCUGAGAAAUAGGAUUUUCACAGUGGGGAAGUGGGUUACAAUAUUGGAAUAGGAAAAUUUGAUGCUGUAAUUUGGGUCCUGUAUUUUUCCAAACAACUGUGCUUCUUCAGCACUAAUAUUUCCAACAGAGGAUUGAGCAUCA
B10: chr6:111694403:111694505:-|CDS|ENSG00000010810|unk|total|mutant (ssRNA)
RNA: GGGAGUUCUACAGUCCGACGAUCAAUGGCUUACAUCGAGCGCAUGAAUUAUAUCCACCGAGAUCUGCGAUCAGCAAACAUUCCCGUGGGGAAUGGACUCAUAUGCAAGAUUGCUGACUUCGGAUUGGCCCGAUUGACCGAAGACAACAGAGGAUUGAGCAUCA
B11: chr19:3536616:3536717:+|3pUTR|ENSG00000105325|msi1|FALSE|unique (ssRNA)
RNA: GGGAGUUCUACAGUCCGACGAUCACCGCCGCAGGGCCAGGCGGACGGCGUGAGGUUUGUGUUGGGGCUGGUUCUGCCCAUGCUAGGGGGUGGGGGAGCUCCCAGGACAGACCAGCCUUGUUUCUCAUGUAAUGCAGUGACGCUCAACAGAGGAUUGAGCAUCA
B12: chr11:43494716:43494817:+|3pUTR|ENSG00000052841|unk|FALSE|unique (ssRNA)
RNA: GGGAGUUCUACAGUCCGACGAUCGUUACCCAUCUUGGAAUAAGUUGUGAAUGUCAGCUCCCUCUCUCUGAGGCCUCCAGACUUAGCUCCUCAGGAGGGUAAUGAGCCAAGGUUGAGUGUUUCCAUACAAUGCUUUUACCUUUGCAACAGAGGAUUGAGCAUCA
B13: chr14:44928120:44928223:-|3pUTR|ENSG00000179454|unk|total|mutant (ssRNA)
RNA: GGGAGUUCUACAGUCCGACGAUCCCGUACAGCAGGCCUCCCAGUGCUGAUGUAAAUAUUUGAGCAGUGUUCCGUACCAUUCUCCGUGCAUAUUAAUUUUUUUAUAUAUCCUUAUAAUUUCCGUUUUUUAAGAUCUUUGCUUUUCAACAGAGGAUUGAGCAUCA
B14: chr10:72012227:72012328:+|3pUTR|ENSG00000122863|msi1|total|mutant (ssRNA)
RNA: GGGAGUUCUACAGUCCGACGAUCCAAUGGAAGGAGCUUCAGCAGGAGGUCCUUCCCAGAAGGUUGAUUCUUGGCCUGGGUGGCCGAGGAGAUAUCCUGACCCUAAAGUCUUCCAGCCCCGGGUCAUCCUCUCCUAUACCCGGGCAACAGAGGAUUGAGCAUCA
B15: chr1:9729969:9730061:-|3pUTR|ENSG00000171603|msi1_unk|total|mutant (ssRNA)
RNA: GGGAGUUCUACAGUCCGACGAUCGUUUUUAUUUUUUCCAAACCCGUGCAUGUAUAAAUAAUGGCAGGAUGGGGGGUACUGUGCCGAUGAUUAACUGACUUUUUAAUAUUUUGUAAAUAAAUCGGAUUCCUUGUGUCCUUUGUGCAACAGAGGAUUGAGCAUCA
B16: chr15:34852525:34852627:-|3pUTR|ENSG00000021776|unk|FALSE|unique (ssRNA)
RNA: GGGAGUUCUACAGUCCGACGAUCCUAGCAUUUCCCAAACUUAUUAGAGCAUAAAACUUUGUUUUUGUUUUUUUUUAAUAAGAUAGGUAGCUAUUUCCUUAGAACACAGUUUGGGAAACUUUUUGUUCAUUUGUUUUAAUAAGACAACAGAGGAUUGAGCAUCA
B17: chr22:36489384:36489485:-|3pUTR|ENSG00000100350|msi1|FALSE|unique (ssRNA)
RNA: GGGAGUUCUACAGUCCGACGAUCGUGUCACUUGCCACACACUGCCUCAACCUCCCCGCCCCAUUUUCAGCAGGGUUUGGGCUUAGCUACAGAGCCCAAGAGGGUCAGCCCUGCUUAUCAUCAUAGGCCCAGCAGGCUGAUCUCCAACAGAGGAUUGAGCAUCA
B18: chr9:128108756:128108857:+|3pUTR|ENSG00000148339|msi1|FALSE|unique (ssRNA)
RNA: GGGAGUUCUACAGUCCGACGAUCAAGGCAGCAGCCCUGGCUCCUUUCCUUUGGCAGGUUGGGGAAGGGCUUGCCCCCAGCCUUAGGAUUUCAGGGUUUGACUGGGGGCGUGGAGAGAGAGGGAGGAACCUCAAUAACCUUGAACAACAGAGGAUUGAGCAUCA
B19: chr5:56893553:56893673:+|CDS|ENSG00000095015|unk|FALSE|unique (ssRNA)
RNA: GGGAGUUCUACAGUCCGACGAUCUGCUCCAUCGAUCCCUUCACAUUUGUCUCCUGGUUUACGAGAUGUGGCUCUUCGUUGUUUAGAACUUCAACCUCAGGACAGACCUCCAUCAAGAGAGCUACUGAAGCAUCCAGUCUUUCGCAACAGAGGAUUGAGCAUCA
B20: chr12:74541195:74541296:+|3pUTR|ENSG00000253719|msi1|FALSE|bound_elsewhere (ssRNA)
RNA: GGGAGUUCUACAGUCCGACGAUCUGGGGGAAGGGGGGGGUUCUUUAAAAUUUCUGUGGUUUGUGGCUUUUUCUUCCAUACAUUAGUUCCCACCAUCGCAUGCCCAGGGACCACUGCCUGGCAUUAUCGCAUGCUGGGAUCAUCCAACAGAGGAUUGAGCAUCA
B21: chr3:167478683:167478996:-|three_prime_utr|ENSG00000174776|control|control|control (ssRNA)
RNA: GGGAGUUCUACAGUCCGACGAUCCUGCCUUUUAUUUUAUUUUAUAUUUAAACUUCAGGAAGUUUUCUCUUCAUGGGAUAAUUUAGUACUGCUUUUAUCUAUCAUCUGUCAAUUUCUCUGUAUUCUUAAUAAAAUAAAUAUUGACAACAGAGGAUUGAGCAUCA
B22: ENSG00000070961:be:win_2751|CDS|ENSG00000070961|bound_else_gene|NA|bound_elsewhere_windowed (ssRNA)
RNA: GGGAGUUCUACAGUCCGACGAUCUGGUAGAAAUAAGCCUCUCAUCUCACGUACAAUGAUGAAGAAUAUUUUGGGUCAUGCAUUCUAUCAACUUGUAGUAGUCUUUACACUCUUAUUUGCUGGAGAAAAGUUUUUUGACAUUGACAACAGAGGAUUGAGCAUCA

These binders were tested against MSI1 full-length (mouse, UniProt Q61474 1-362) (assay: nsRBNS (natural sequence RNA bind-n-seq); RBNS binding buffer (assumed for nsRBNS): 25 mM Tris pH 7.5, 150 mM KCl, 3 mM MgCl2, 0.01% Triton X-100, 500 ug/ml BSA, 20 U/ml SUPERase-In, 4 C; UNK is unkempt and MSI1 is Musashi-1; names of the RNAs are library labels; protein concentration not given here; high values mean tight binding).
Sequence of UniProt Q61474 (Q61474 whole entry): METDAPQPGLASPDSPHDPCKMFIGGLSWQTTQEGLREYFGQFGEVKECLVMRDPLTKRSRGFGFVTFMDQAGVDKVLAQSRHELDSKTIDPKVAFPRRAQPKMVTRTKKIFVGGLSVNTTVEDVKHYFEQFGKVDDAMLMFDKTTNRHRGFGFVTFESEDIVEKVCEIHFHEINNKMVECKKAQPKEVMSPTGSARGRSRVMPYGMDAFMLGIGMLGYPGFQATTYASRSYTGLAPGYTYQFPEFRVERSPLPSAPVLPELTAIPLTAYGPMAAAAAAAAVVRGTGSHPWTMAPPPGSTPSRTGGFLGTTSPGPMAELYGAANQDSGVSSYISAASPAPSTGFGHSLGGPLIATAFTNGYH

Row | Binder | binding signal [enrichment R]
1 | B1 | 0.324
2 | B2 | 0.591
3 | B3 | 0.363
4 | B4 | 0.848
5 | B5 | 0.346
6 | B6 | 4.22
7 | B7 | 1.27
8 | B8 | 1.44
9 | B9 | 0.57
10 | B10 | 0.197
11 | B11 | 0.565
12 | B12 | 0.47
13 | B13 | 8.16
14 | B14 | 0.338
15 | B15 | 1.2
16 | B16 | 13.5
17 | B17 | 0.765
18 | B18 | 0.54
19 | B19 | 0.463
20 | B20 | 0.979
21 | B21 | 1.98
22 | B22 | 0.876
